Data published in PubChem BioAssay AID651820 (National Center for Advancing Translational Sciences (NCATS), 2012).
Out of some 340,000 compounds screened, about 12,000 (3.5%) were called active. Inconclusive results, whose numbers are uncertain, are shown with a selection of clear calls. Calls follow the shape of the dose curve; as a rule, active = well fitted inhibition curve with a large enough effect; inconclusive = small, poorly fitted or top-dose-only effect, or another doubt; inactive = no such curve, though single readings can be large or run the other way. No potency is given beside an inconclusive call; the fits are too rough.
% is scaled to controls: 0 for no effect and ±100 for the full control effect; potency is read from the fitted curve at half-maximal effect; tags tell the direction and shape of the fitted curve.

Assay: qHTS Assay for Inhibitors of Hepatitis C Virus (HCV)
Settings: Huh7.5.1 HCVcc-Cre (HCVcc is cell-culture hepatitis C virus) infection, luciferase reporter, 44 h; activity change, negative = inhibition: at 41.8 µM (top of the series) unless noted
Outline: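 Whole-lifecycle infectious HCVcc-Cre system; cells 1,000/well, compound then virus (~0.5 moi) added 4 h after plating, 44 h culture. Luciferase read 15 sec following 15 min substrate incubation, room temp.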
For `CN(C)CCCNc1ncnc2oc(-c3ccccc3)c(-c3ccccc3)c12`, the Potency was active: 3.55 µM.
With `COc1ccc(NC(=O)c2cnc(SC)n2-c2ccc(F)cc2)c(OC)c1` the Potency was inconclusive [inhibitor, partial curve].
In the case of `Brc1csc(/C=N/Nc2nc3ccccc3s2)c1`, the Potency is reported as inconclusive [inhibitor, single point].
With `Cc1cccn2c(CNCCCOc3cccnc3)c(C(=O)N3CCOCC3)nc12` the “activity change, negative = inhibition” value was inactive: 8.76%.
For `COc1cccc(CNC(=O)C(=O)NCC2OCCCN2S(=O)(=O)c2cc(C)ccc2C)c1` (centres undefined), the Potency was inconclusive [inhibitor, single point].
In the case of `CC(C)(C)OC(=O)N(Cc1ccccc1)Cc1ccccc1OCc1cccc(NC(=O)c2ccccc2)c1`, the Potency is reported as inconclusive [inhibitor, single point].
In the case of `COc1cc(NC(=O)c2cccs2)ccc1NC(=O)c1ccco1`, the Potency is reported as inconclusive [inhibitor, full curve, poor fit].
For `O=Cc1c(Sc2ccccn2)nc2ccccn2c1=O`, the Potency was active: 35.5 µM.
With `O=C(O)c1cccc(NC(=O)c2cn(-c3ccccc3)nc2-c2cccc(Br)c2)c1` the Potency was inconclusive [inhibitor, single point].
For `CCCCOc1ccc(C(=O)NCC(=O)NC2CCC(C)CC2)cc1` (centres undefined), the Potency was inconclusive [inhibitor, single point].
With `Cc1c(Cl)ccc(S(=O)(=O)NCCCn2ccnc2)c1Cl` the Potency was inconclusive [inhibitor, single point].
In the case of `O=C(COC(=O)c1n[nH]c2ccccc12)NC1CCCCC1`, the “activity change, negative = inhibition” value is reported as inactive: -27.4%.
In the case of `CC(/C=N/Nc1ccc2nncn2n1)=C\c1ccccc1`, the “activity change, negative = inhibition” value is reported as inactive: -2.79%.
With `Fc1ccc2c(c1)Sc1ccc(Cl)cc1CC2N1CCN(CCC2OCCO2)CC1` (centres undefined) the Potency was inconclusive [inhibitor, full curve, poor fit].
With `CCc1nc(NCCc2ccccn2)c2nnn(Cc3ccccc3F)c2n1` the Potency was inconclusive [inhibitor, partial curve, poor fit].
For `O=C1CCC(c2ccccc2)N1C(=O)c1cccnc1` (centres undefined), the Potency was inconclusive [inhibitor, single point].
With `CC(=O)Nc1ccc(S(=O)(=O)Nc2cc(C)c(-n3nc4ccccc4n3)cc2O)cc1` the Potency was inconclusive [inhibitor, partial curve].
With `COc1ccc(NS(=O)(=O)c2cccc(C(=O)N/N=C/c3cn(-c4ccccc4)nc3-c3ccccc3)c2)cc1` the Potency was inconclusive [inhibitor, single point].
With `CC(C)COc1ccc(C(=O)Nc2cc(S(=O)(=O)N3CCOCC3)ccc2N2CCCC2)cc1` the “activity change, negative = inhibition” value was inactive: -24.9%.
In the case of `COc1cc2c(cc1NC(=O)c1cccc(F)c1)CCCC2`, the Potency is reported as inconclusive [inhibitor, partial curve].
With `O=C(Nc1ccc(C(F)(F)F)cc1)c1cccn(Cc2ccc3c(c2)OC(F)(F)O3)c1=O` the Potency was active: 10 µM.
With `N#CC(C#N)=c1ccc2c(c1)NC1(CCCCC1)N=2` the Potency was inconclusive [inhibitor, single point].
For `COc1ccc(Cl)cc1NC(=O)C1CC(c2c(F)cccc2Cl)=NO1` (centres undefined), the Potency was inconclusive [inhibitor, single point].
In the case of `CC(OC(=O)CNC(=O)C1CCCCC1)C(=O)NCc1ccccc1` (centres undefined), the “activity change, negative = inhibition” value is reported as inactive: 0.246%.
In the case of `CC(NS(=O)(=O)OCC(Cl)(Cl)Cl)c1ccc(C(C)(C)C)cc1` (centres undefined), the Potency is reported as inconclusive [inhibitor, partial curve].
In the case of `O=[N+]([O-])c1ccc2[nH]cc(S(=O)(=O)N3CCN(c4cccc(Cl)c4)CC3)c2c1`, the Potency is reported as inconclusive [inhibitor, single point].
For `COc1ccc(-c2cccc([C@H]3[C@@H]4C=CCC[C@@]4(C)C(=O)N3Cc3ccccc3)c2)cc1`, the Potency was inconclusive [inhibitor, single point].
For `Cc1nn(C)c(Oc2ccccc2)c1CCNS(=O)(=O)c1ccccc1`, the Potency was inconclusive [inhibitor, single point].
In the case of `CCN(CCO)c1ccc(N=Nc2cc(C)[nH]n2)cc1`, the “activity change, negative = inhibition” value is reported as inactive: -3.79%.
In the case of `C/C(=N\NC(=O)c1cc(C2CC2)nc2ccccc12)c1ccc(O)cc1O`, the Potency is reported as active: 6.31 µM.
With `COc1cc(SC)ccc1C(=O)Nc1ccon1` the Potency was inconclusive [inhibitor, full curve, poor fit].
With `Cc1cccc(NC(=O)c2ccc(-c3ccccc3[N+](=O)[O-])o2)c1` the Potency was inconclusive [inhibitor, full curve].
In the case of `CCCN(CCC)CC(O)Cn1cc(/C=C/C(=O)c2cccs2)c2ccccc21` (centres undefined), the Potency is reported as inconclusive [inhibitor, partial curve].
In the case of `O=C(c1ccc(Cl)cc1)C1CCCN(Cc2cccc3ncccc23)C1` (centres undefined), the Potency is reported as active: 7.94 µM.
In the case of `COc1ccc2c(c1)OC[C@H]1[C@H]2N2C(=O)c3cc(F)ccc3NC(=O)[C@@]2(C)[C@H]1c1ccccc1`, the Potency is reported as active: 11.2 µM.
With `COc1cc(/C=C2/NC(=O)N(Cc3ccccc3F)C2=O)cc(OC)c1OC` the Potency was inconclusive [inhibitor, partial curve].
In the case of `CCOc1ccc(C(=O)OCC(=O)Nc2cccnc2Cl)cc1OCC`, the Potency is reported as inconclusive [inhibitor, single point].
In the case of `CC(C)CCNC(=O)c1cc(S(=O)(=O)N2CCc3ccccc32)cn1C`, the Potency is reported as inconclusive [inhibitor, single point].
With `C=C(C)C1CC=C(C)/C(=N\NC(=O)CNc2cccc3ccccc23)C1` (centres undefined) the Potency was inconclusive [inhibitor, partial curve, poor fit].
With `CCOC(=O)c1cc(-c2csc(-c3ccc(C(F)(F)F)cc3)n2)on1` the Potency was inconclusive [inhibitor, partial curve].
For `COc1cc(OC)c(NS(=O)(=O)c2cc(C(=O)OC(C)C(=O)NC3CC3)c(Cl)cc2Cl)cc1Cl` (centres undefined), the Potency was active: 11.2 µM.
With `CC(=O)N(CCCc1ccc(C(C)(C)C)cc1)CCCN(C)C` the Potency was active: 7.94 µM.
In the case of `COc1ccc(Cl)c(N2CCN(CCCNC(=O)Nc3ccc(C)cc3)CC2)c1`, the Potency is reported as inconclusive [inhibitor, single point].
In the case of `Cc1cccc(C(=O)OCC(=O)Nc2sc3c(c2C#N)CCC3)c1`, the “activity change, negative = inhibition” value is reported as inactive: 8.66%.
With `O=[N+]([O-])c1cc(C=NN2CCCCCC2)ccc1Cl` the Potency was inconclusive [inhibitor, single point].
For `CCn1cc(C(=O)NC(=S)Nc2sc3c(c2C(=O)OC)CCCCCC3)cn1`, the Potency was inconclusive [inhibitor, single point].
With `CSc1nc(Oc2ccccc2)c2sccc2n1` the Potency was inconclusive [inhibitor, single point].
With `O=C(CSc1ncnc2sc3c(c12)CCCC3)c1ccco1` the Potency was inconclusive [inhibitor, single point].
With `O=C(NCc1ccccc1CN1CCOCC1)c1ccc(-n2cccn2)cc1` the Potency was inconclusive [inhibitor, partial curve, poor fit].
In the case of `CC(C)(C)OC(=O)[C@H](NC(=O)OCc1ccccc1)c1ccccc1`, the “activity change, negative = inhibition” value is reported as inactive: -23.9%.
In the case of `COc1ccc(-c2cc(C(F)F)n3ncc(C(=O)N4CCCCC4)c3n2)cc1`, the Potency is reported as inconclusive [inhibitor, single point].
For `COc1cccc(C2c3[nH]c4ccccc4c3C[C@H]3C(=O)N(C4CCN(Cc5ccccc5)CC4)CC(=O)N23)c1` (some centres undefined), the Potency was inconclusive [inhibitor, single point].
For `COCCCNCCCOc1ccc(Cl)cc1C(C)(C)C`, the Potency was active: 7.08 µM.
With `COc1cc(OC)c(OC)cc1CNCCNC(=O)c1nonc1N` the “activity change, negative = inhibition” value was inactive: 0.421%.
In the case of `CCNC(=S)N/N=C(\C)c1cccc([N+](=O)[O-])c1`, the Potency is reported as inconclusive [inhibitor, partial curve].
In the case of `COc1ccc(CNc2ccc(C)c(C)c2)c(OC)c1OC`, the Potency is reported as inconclusive [inhibitor, single point].
For `CCCNC(=O)C1(S(=O)(=O)c2ccccc2)CC=CC1`, the “activity change, negative = inhibition” value was inactive: 9.75%.
With `Cc1cnc(Nc2nc3ccccc3o2)nc1C(=O)Nc1cccc(C(F)(F)F)c1` the Potency was active: 6.31 µM.
For `N/C(=N\OC(=O)c1ccc2c(c1)OCO2)c1ccc(Cl)cc1`, the Potency was inconclusive [inhibitor, single point].
For `Cc1ccc(-c2nnn(CC(=O)N(Cc3ccco3)C(C(=O)NC(C)(C)C)c3ccc(C)o3)n2)o1` (centres undefined), the Potency was active: 11.2 µM.
For `O=C(Nc1ccc(SC(F)F)cc1)c1ccc(F)cc1`, the Potency was inconclusive [inhibitor, single point].
With `CCC1(OC(=O)CN(C)C)C(=O)OCc2c1cc1n(c2=O)Cc2cc3c(N)cccc3nc2-1` (centres undefined) the Potency was inconclusive [inhibitor, full curve, poor fit].
For `COC(=O)c1ccc(NC(=O)c2nc(S(=O)(=O)Cc3cccc(C)c3)ncc2Cl)cc1`, the Potency was inconclusive [inhibitor, single point].
With `CC1(C)OC(=O)C(=Cc2ccc(-c3ccc(S(N)(=O)=O)cc3)o2)C(=O)O1` the Potency was inconclusive [inhibitor, full curve].
With `O=C(OCC(=O)N1CCOCC1)c1cccc(F)c1` the “activity change, negative = inhibition” value was inactive: 21.4%.
For `COc1ccc(NS(=O)(=O)c2ccc(C)c(C(=O)OC(C)C(=O)N3CCOCC3)c2)cc1` (centres undefined), the “activity change, negative = inhibition” value was inactive: 2.57%.
In the case of `CCCCC1(C)NC(=O)c2c(C)sc(C(=O)OCC)c2N1` (centres undefined), the Potency is reported as inconclusive [inhibitor, partial curve].
For `CC(=O)NNc1cc(C)nc(N)n1`, the “activity change, negative = inhibition” value was inactive: 4.57%.
For `CCCN1CCC(NC(=O)CC2C(=O)NCCN2Cc2cccc(OC)c2)CC1` (centres undefined), the “activity change, negative = inhibition” value was inactive: 5.14%.
